For 21 molecules, Kd results are on record in patent publication US20230145766A1 (Innovent, published 2023).

One may read the Kd as the constant that tells how readily two partners part at equilibrium. Low values mean tighter binding, high ones weaker binding.

Experiment [1] concerns the target T1, IL-2Rβ receptor with an avi tag and an His6 tag at the C-terminus (human, UniProt P14784 27-240, biotin on the avi tag (enzymatic labelling with BirA)).
T1 construct: Biotin-labelled and loaded on the SA sensor in the ForteBio assays; also called CD122; IL-2Rβ-His
T1 sequence: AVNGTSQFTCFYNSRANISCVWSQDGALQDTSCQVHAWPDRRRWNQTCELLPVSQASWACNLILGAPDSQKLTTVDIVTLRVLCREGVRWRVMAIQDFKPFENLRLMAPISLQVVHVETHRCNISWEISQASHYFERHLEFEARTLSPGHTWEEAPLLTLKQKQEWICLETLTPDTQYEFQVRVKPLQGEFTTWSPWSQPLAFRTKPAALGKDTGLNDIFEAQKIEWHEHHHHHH
The experiment in a line: BLI (ForteBio); biotinylated receptor on SA sensor, 100 nM IL-2 mutant molecule in solution, 1:1 model. On the procedure:
(§1) The equilibrium dissociation constants (KD) for binding of the IL-2 mutants described above in the present invention to their receptors were measured by biological optical interferometry (ForteBio).
(§2) The ForteBio affinity assay was conducted according to the method (Estep, P et al., High throughput solution Based measurement of antibody-antigen affinity and epitope binding. mAbs, 2013.5(2): p. 270-8) known in the art. […] The kinetic analysis was performed using a 1:1 binding model.
(§3) The expression yields and purity of the IL-2 mutants were improved relative to the wild-type (Y045), and meanwhile, the introduction of the IL-2Rβγ binding interface amino acid mutations led to different levels of reductions in the affinity for IL-2Rβ and IL-2Rβγ.
Background: BLI is a label-free optical method that tracks binding on a fibre tip over time.

Experiment [2] concerns the target T2, IL-2 receptor βγ complex (IL-2Rβ-Fc.Knob / IL-2Rγ-Fc.Hole heterodimer) (human, complex was biotin-labelled enzymatically (BirA); site not stated).
T2 construct: Knobs-in-holes Fc heterodimer co-expressed in Expi293 cells; also called IL-2Rβγ; IL-2 receptor βγ protein
The experiment is described as above. The protocol: as §1, §2, §3

B1: 2257 (Fc fusion)
chain: APASSSTKKTQLQLEHLLLDLQMILNGINNYKNPELEEMLTFKFYMPKKATELKHLQCLEEELKPLEEVLNLAQSKNFHLRPRDLISNINVIVLELKGSETTFMCEYADETATIVEFLNRWITFSQSIISTLTGGGGSGGGGS[omitted - human IgG1 Fc with changes]
notes: Format 1 homodimer
In experiment [1], B1 gave a Kd of 0.714 nM.

B2: 2263 (Fc fusion)
chain: APASSSTKKTQLQLENLLLDLQMILNGINNYKNPELEEMLTFKFYMPKKATELKHLQCLEEELKPLEEVLNLAQSKNFHLRPRNLISNINVIVLELKGSETTFMCEYADETATIVEFLNRWITFSQSIISTLTGGGGSGGGGS[omitted - human IgG1 Fc with changes]
notes: Format 1 homodimer
For B2, in experiment [1], the Kd was found to be 27.7 nM.

B3: 2262 (Fc fusion)
chain: APASSSTKKTQLQLENLLLDLQMILNGINNYKNPELEEMLTFKFYMPKKATELKHLQCLEEELKPLEEVLNLAQSKNFHLRPRDLISNINVIVLELKGSETTFMCEYADETATIVEFLNRWITFSQSIISTLTGGGGSGGGGS[omitted - human IgG1 Fc with changes]
notes: Format 1 homodimer
In the case of B3, the affinity in experiment [1], expressed as Kd, was 10.5 nM.

B4: 2258 (Fc fusion)
chain: APASSSTKKTQLQLEHLLLDLQMILNGINNYKNPELEEMLTFKFYMPKKATELKHLQCLEEELKPLEEVLNLAQSKNFHLRPRNLISNINVIVLELKGSETTFMCEYADETATIVEFLNRWITFSQSIISTLTGGGGSGGGGS[omitted - human IgG1 Fc with changes]
notes: Format 1 homodimer
In experiment [1], B4 gave a Kd of 1.39 nM.

B5: 2092 (Fc fusion)
chain: APASSSTKKTQLQLQHLLLDLQMILNGINNYKNPELEEMLTAKFYMPKKATELKHLQCLEEELKPLEEVLNLAGDASIHDLISNINVIVLELKGSETTFMCEYADETATIVEFLNRWITFSQSIISTLTGGGGSGGGGS[omitted - human IgG1 Fc with changes]
notes: Format 1 homodimer
For B5, the Kd in experiment [1] turned out to be 2.31 nM; in experiment [2], 0.153 nM.

B6: 2167 (Fc fusion)
chain: APASSSTKKTQLQLEHLLLDLQMILNGINNYKNPELEEMLTAKFYMPKKATELKHLQCLEEELKPLEEVLNLAGDASIHNLISNINIIVLELKGSETTFMCEYADETATIVEFLNRWITFSQSIISTLTGGGGSGGGGS[omitted - human IgG1 Fc with changes]
notes: Format 1 homodimer
As to B6, the Kd was 28.5 nM in experiment [1] and 0.287 nM in experiment [2].

B7: 2116 (Fc fusion)
chain: APASSSTKKTQLQLEHLLLDLQMILNGINNYKNPELEEMLTAKFYMPKKATELKHLQCLEEELKPLEEVLNLAGDASIHTLISNINVIVLELKGSETTFMCEYADETATIVEFLNRWITFSQSIISTLTGGGGSGGGGS[omitted - human IgG1 Fc with changes]
notes: Format 1 homodimer
As for B7, the Kd was 17.6 nM in experiment [1] and 0.374 nM in experiment [2].

B8: 2172 (Fc fusion)
chain: APASSSTKKTQLQLEHLLLDLQMILNGINNYKNPELEEMLTAKFYMPKKATELKHLQCLEEELKPLEEVLNLAQSKNFHDLISNINVIVLELKGSETTFMCEYADETATIVEFLNRWITFSQSIISTLTGGGGSGGGGS[omitted - human IgG1 Fc with changes]
notes: Format 1 homodimer
Turning to B8, the affinity in experiment [1], expressed as Kd, was 2.78 nM.

B9: 2131 (Fc fusion)
chain: APASSSTKKTQLQLEHLLLDLQMILNGINNYKNPELEEMLTAKFYMPKKATELKHLQCLEEELKPLEEVLNLAGDASIHDLISDINVIVLELKGSETTFMCEYADETATIVEFLNRWITFSQSIISTLTGGGGSGGGGS[omitted - human IgG1 Fc with changes]
notes: Format 1 homodimer
B9: the values for the Kd in experiment [1] and in experiment [2] were 11.9 nM and 0.467 nM, respectively.

B10: 2168 (Fc fusion)
chain: APASSSTKKTQLQLEHLLLDLQMILNGINNYKNPELEEMLTAKFYMPKKATELKHLQCLEEELKPLEEVLNLAGDASIHTLISNINVIVLELKGSETTFMCEYADETATIVEFLNRWITFSESIISTLTGGGGSGGGGS[omitted - human IgG1 Fc with changes]
notes: Format 1 homodimer
In the case of B10, the Kd in experiment [1] came to 23.3 nM; in experiment [2], 6.97 nM.

B11: 2158 (Fc fusion)
chain: APASSSTKKTQLQLEHLLLDLQMILNGINNYKNPELEEMLTAKFYMPKKATELKHLQCLEEELKPLEEVLNLAGDASIHDLISNINVIVLELKGSETTFMCEYADETATIVEFLNRWITFSESIISTLTGGGGSGGGGS[omitted - human IgG1 Fc with changes]
notes: Format 1 homodimer
Regarding B11, the equilibrium dissociation constant (Kd) in experiment [1] is 6.77 nM; in experiment [2], 0.358 nM.

B12: 2097 (Fc fusion)
chain: APASSSTKKTQLQLETLLLDLQMILNGINNYKNPELEEMLTAKFYMPKKATELKHLQCLEEELKPLEEVLNLAGDASIHDLISNINVIVLELKGSETTFMCEYADETATIVEFLNRWITFSQSIISTLTGGGGSGGGGS[omitted - human IgG1 Fc with changes]
notes: Format 1 homodimer
On to B12, for which the Kd in experiment [1] was 13.5 nM; in experiment [2], 0.118 nM.

B13: 2154 (Fc fusion)
chain: APASSSTKKTQLQLEHLLLDLQMILNGINNYKNPELEEMLTAKFYMPKKATELKHLQCLEEELKPLEEVLNLAGDASIHDLISNINVIVLQLKGSETTFMCEYADETATIVEFLNRWITFSQSIISTLTGGGGSGGGGS[omitted - human IgG1 Fc with changes]
notes: Format 1 homodimer
In experiment [1], B13 had a Kd of 6.08 nM.

B14: 2115 (Fc fusion)
chain: APASSSTKKTQLQLEHLLLDLQMILNGINNYKNPELEEMLTAKFYMPKKATELKHLQCLEEELKPLEEVLNLAGDASIHQLISNINVIVLELKGSETTFMCEYADETATIVEFLNRWITFSQSIISTLTGGGGSGGGGS[omitted - human IgG1 Fc with changes]
notes: Format 1 homodimer
B14: the Kd in experiment [1] was 16.1 nM; in experiment [2] it was 0.459 nM.

B15: 2169 (Fc fusion)
chain: APASSSTKKTQLQLEHLLLDLQMILNGINNYKNPELEEMLTAKFYMPKKATELKHLQCLEEELKPLEEVLNLAGDASIHNLISNINVIVLELKGSETTFMCEYADETATIVEFLNRWITFSESIISTLTGGGGSGGGGS[omitted - human IgG1 Fc with changes]
notes: Format 1 homodimer
In the case of B15, the Kd was 24.7 nM in experiment [1] and 6.68 nM in experiment [2].

B16: 2114 (Fc fusion)
chain: APASSSTKKTQLQLEHLLLDLQMILNGINNYKNPELEEMLTAKFYMPKKATELKHLQCLEEELKPLEEVLNLAGDASIHELISNINVIVLELKGSETTFMCEYADETATIVEFLNRWITFSQSIISTLTGGGGSGGGGS[omitted - human IgG1 Fc with changes]
notes: Format 1 homodimer
In the case of B16, the Kd in experiment [1] amounted to 11.3 nM; in experiment [2], 0.172 nM.

B17: 2162 (Fc fusion)
chain: APASSSTKKTQLQLEHLLLDLQMILNGINNYKNPELEEMLTAKFYMPKKATELKHLQCLEEELKPLEEVLNLAGDASIHNLISNINVIVLQLKGSETTFMCEYADETATIVEFLNRWITFSQSIISTLTGGGGSGGGGS[omitted - human IgG1 Fc with changes]
notes: Format 1 homodimer
As to B17, the values for the Kd in experiment [1] and in experiment [2] were 37.1 nM and 0.313 nM, respectively.

B18: 2096 (Fc fusion)
chain: APASSSTKKTQLQLENLLLDLQMILNGINNYKNPELEEMLTAKFYMPKKATELKHLQCLEEELKPLEEVLNLAGDASIHDLISNINVIVLELKGSETTFMCEYADETATIVEFLNRWITFSQSIISTLTGGGGSGGGGS[omitted - human IgG1 Fc with changes]
notes: Format 1 homodimer
For the molecule B18, the equilibrium dissociation constant (Kd) is 13.9 nM in experiment [1] and 0.112 nM in experiment [2].

B19: 2166 (Fc fusion)
chain: APASSSTKKTQLQLETLLLDLQMILNGINNYKNPELEEMLTAKFYMPKKATELKHLQCLEEELKPLEEVLNLAGDASIHTLISNINVIVLELKGSETTFMCEYADETATIVEFLNRWITFSQSIISTLTGGGGSGGGGS[omitted - human IgG1 Fc with changes]
notes: Format 1 homodimer
Turning to B19, the Kd was determined as 330 nM in experiment [1] and 1.72 nM in experiment [2].

B20: 2113 (Fc fusion)
chain: APASSSTKKTQLQLEHLLLDLQMILNGINNYKNPELEEMLTAKFYMPKKATELKHLQCLEEELKPLEEVLNLAGDASIHNLISNINVIVLELKGSETTFMCEYADETATIVEFLNRWITFSQSIISTLTGGGGSGGGGS[omitted - human IgG1 Fc with changes]
notes: Format 1 homodimer
Take B20: the Kd stood at 13.6 nM in experiment [1] and 0.247 nM in experiment [2].

B21: 2141 (Fc fusion)
chain: APASSSTKKTQLQLEHLLLDLQMILNGINNYKNPELEEMLTAKFYMPKKATELKHLQCLEEELKPLEEVLNLAGDASIHDLISNINIIVLELKGSETTFMCEYADETATIVEFLNRWITFSQSIISTLTGGGGSGGGGS[omitted - human IgG1 Fc with changes]
notes: Format 1 homodimer
Take B21: the values for the Kd in experiment [1] and in experiment [2] were 7.56 nM and 0.112 nM, respectively.
